Experimental data taken from the supplement of paper PMC11417369.
± gives the standard deviation of the averaged measurements. The list shows a part of the results.

System: PfAP2-LT AP2 domain (GST-tagged)
Experiment: gcPBM binding intensity (ln(normalized median fluorescence intensity)); higher = stronger DNA binding
In short: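 DNA-binding domains from P. falciparum, fused to GST and produced in E. coli, were put on an Agilent 4 × 180k double-stranded probe array for 1 h in 1× PBS holding 1% milk, 0.2 mg/ml BSA, 0.5% salmon testes DNA and 0.03% Triton X-100. Probes were primer-extended, 36 bp long and drawn from intergenic genomic regions, with negative controls included. After Alexa488 anti-GST antibody detection and a 488 nm scan, binding intensity was set as the highest Masliner-normalised natural-log median intensity across replicate spots of either probe orientation.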

Sequence | gcPBM binding intensity (ln)
GACATTTCTTGGGATACATGCATGTCCCAGAACAAA [TGCATGCA_site271] | 8.66 ± 0.37
AATTCAGCTTTACAACGTACACAATCATATGTCTAT [XGTACX_site8113] | 9.06 ± 0.41
TAATACATAAATGATTGTACATAAGAATTGAAACAT [XGTACX_site4583] | 8.9 ± 0.49
ATGAAGATTTAAAAATGTACATATGATCTATGTCCT [XGTACX_site8409] | 8.83 ± 0.54
TATAAATAAATAAACACACACAAATAAAATAAAAAA [CACACA_site7623] | 9.36 ± 0.4
TTTTTTTGCCATATTACACACACACCGGTAAACCCC [CACACA_site8475] | 9.56 ± 0.35
TTTATTTATTTATTCTTATTTTTTTTTTTTTTTACT [CACACA_negctrl_site257] | 8.42 ± 0.65
ACATATTAGGGTCATGAACACACAAAAAAAAAAAAA [CACACA_site8218] | 8.99 ± 0.61
TATATATATTAAAAACGTACAAAATAAGAATTAATT [XGTACX_site5979] | 8.81 ± 0.37
GGATATATTTTATGTACACACACATATAAGGGATTA [CACACA_site4181] | 9.24 ± 0.3
TCTAGGAAAAATTATAGTACACAAAAATATATATAT [XGTACX_site4136] | 8.7 ± 0.4
TATGACACTTTGAAGGGTACATGCAGAAAAAAAAAA [XGTACX_site569] | 8.72 ± 0.42
TTATATGCACTTTTTGCACACGTATGAATAACAAAA [CACACA_site1811] | 8.9 ± 0.35
ATATATACATATACTATATCTTTTATTTTTATTATT [GTGCAC_negctrl_site127] | 8.74 ± 0.52
TATATAAATGTATACACACACATATAAATATAAATA [CACACA_site6751] | 9.22 ± 0.4
ATTCTAATTACATATACACACAAAGGTTCATAACAA [CACACA_site3076] | 8.84 ± 0.35
TTCCCATGTAATATTAAACACACACCCATATAACAC [CACACA_site7905] | 9.505 ± 0.078
TAACTACTAGAAAAAACACACAAAAAGTAAATATAT [CACACA_site2740] | 8.99 ± 0.5
TGTTTAACATTTATATGTACATATATTCACATATTA [XGTACX_site342] | 8.9 ± 0.38

Sequence | gcPBM binding intensity (ln)
TGATTTTTTTTTTTTTTTTTTTTTTTTTTAGTTTGC [CACACA_negctrl_site1057] | 8.4 ± 0.55
TACCAAATCACCCCTTGTACCCATTTTAAAATTTTC [XGTACX_site396] | 8.88 ± 0.4
TAAAATATAAGACACACACACATATATTTATATATC [CACACA_site6248] | 9.79 ± 0.3
ATAAACAGATCATATACATGCATATATGTAGAATAA [TGCATGCA_site157] | 9.05 ± 0.45
GTACAGATGTAGTATGCATGTAATTATATATAAATT [TGCATGCA_site292] | 9.02 ± 0.5
ATATAAAAAAGAGGGAGTACTTGTAACAAAATAATA [XGTACX_site8679] | 8.79 ± 0.41
ACGTAGTAGGTATTATGTACATATTTATAAGTATAA [XGTACX_site7336] | 8.78 ± 0.45
ACATGTTCATAATTTTGTACATATTTTTATGAACAT [XGTACX_site3976] | 8.91 ± 0.3
ACATACGAAAATTGGAAGGATAGATAAAAAGAAAAT [CACACA_negctrl_site51] | 8.96 ± 0.51
AAAAAGCAGGATTATACACACAAATATTTATATGTT [CACACA_site6634] | 9.13 ± 0.45
GCGTAGTTCGGAAGGGTGCTTTTTTGTTAATAAAAA [GTGCAC_site9592] | 8.6 ± 0.49
AATATTTATTTTTTTGCACACATATTTTACATTTTA [CACACA_site3182] | 9.48 ± 0.41
GTAAAATTTCGGATTTGTACACATGGCTATGAAAAA [XGTACX_site939] | 8.73 ± 0.44
TCCCATAATATTAGTAGTACTATTAATATTTTCAGG [XGTACX_site4925] | 8.51 ± 0.41
TTATGTTATAAATACACACACAAAAGAAAAAAAAAA [CACACA_site7414] | 9.2 ± 0.47
TTCTCTATAAATGCTGCACACACATTTAATTATTTA [CACACA_site8828] | 9.21 ± 0.36
ATTTCTTTTTTTTCTTGTACACATATTAAATTTATG [XGTACX_site734] | 8.92 ± 0.55
CAGACCTCTTTGTCATGTACATAAAAAAATAAAGAA [XGTACX_site7887] | 8.72 ± 0.53
TATTTCTTTTGGTTGGTGCATAAAATAATACAATAT [GTGCAC_site9916] | 8.6 ± 0.35

Sequence | gcPBM binding intensity (ln)
TATAAACAGACGAAAACACACATATGTAAATATATA [CACACA_site4428] | 9.15 ± 0.44
ATAAAAATAATATCATGTACATATGTGTATTGTATT [XGTACX_site1768] | 8.88 ± 0.42
TACAAAAAGTTATACACACACGTACCTATAAATAGA [CACACA_site6571] | 9.24 ± 0.37
CCACATGAGATGATTACACACATATAAATATTTACA [CACACA_site6222] | 9.02 ± 0.45
TATAAGAAAATAATGTGTACTAAATAATAAATGCAT [XGTACX_site1204] | 8.87 ± 0.44
ACTTTTTAATAATAATAATTATATATATATATATAT [TGCATGCA_negctrl_site459] | 9.01 ± 0.34
ATATATATTTAATTTACACACAAAAAAAATTGTTGG [CACACA_site961] | 8.85 ± 0.38
AATACATAAATATTTTGTACATATTATATAAAATAT [XGTACX_site1627] | 8.62 ± 0.52
ATAAATGAAGATAAATTAAAAAAAAAAAAAAAAAAA [CACACA_negctrl_site992] | 8.31 ± 0.41
GAATGTATTCATAAATGTACTTATAATATTATAATA [XGTACX_site3466] | 8.52 ± 0.42
ATAACATACATAACAACACACAATATTTATATGTAT [CACACA_site210] | 9.2 ± 0.34
CGACTTTTAAAATATACACACATATATATATATATA [CACACA_site825] | 9.48 ± 0.24
ATGAAAAAAAAAAAAAAAAAAAAAAAAAAAAAAAAA [CACACA_negctrl_site1405] | 8.1 ± 0.49
CTTGTACCTAGAAATACACACAATTATATAACTTAT [CACACA_site2838] | 8.84 ± 0.42
ATTTGCTTTTATTTTACACACTTGCTCCTGTTGTAC [CACACA_site1088] | 9.52 ± 0.47
AAAAAAAAATATATTGCACACCTCTCAATAAAAAAA [CACACA_site172] | 8.84 ± 0.39
TCCATTCTATTTTTTACACACGTATGTAAATATTAT [CACACA_site2686] | 9.04 ± 0.39
AGAATATATATAATAGTGCAATGTACAATGAACAAA [GTGCAC_site9577] | 9.07 ± 0.39
